We go through 58 molecules from PubChem BioAssay AID463173 (ICCB-Longwood Screening Facility, Harvard Medical School, 2010).

Structures are written as SMILES. Out of some 52,000 compounds screened, about 1,700 (3.3%) were called active. Rule as the data show it: active = survival mostly below about 52% (no sharp cut-off); inactive = mostly above about 56%. Some of the results follow.

The test system of this experiment is Wild type. As to the kind of experiment: growth inhibition of S. aureus wild type versus tarO mutant, primary screen, teichoic acid synthesis inhibitors, RN4220, OD600 (AID 463173). The following applies: S. aureus RN4220 wild type/DeltatarO growth, OD600, 18 h, stronger effect = lower value, screened at 18.75 µg/mL (by protocol).
Turning to `Fc1ccccc1N1CCN(c2nc3ccccc3c3nc(-c4ccccc4)nn23)CC1`, the survival was inactive: 79%. Next, `CC(=O)Nc1ccc(OCC(O)CN2CCN(c3ccc(C)c(Cl)c3)CC2)cc1` (stereo not drawn): inactive: 98%; `O=C1CSC(=O)N1CCc1ccccc1`: inactive: 101%.

Consider `CSc1nc(NC(N)=S)nc(NC(C)C)n1`, for which the survival was inactive: 95%. Next, `CC(=O)Nc1cccc(-n2cc3c(c2-c2ccccc2Cl)c(=O)n(C)c(=O)n3C)c1`: inactive: 90%; `O=C(CCn1ccc2cc(S(=O)(=O)N3CCCC3)ccc21)NCc1ccccc1Br`: inactive: 72%; `Cc1cccc2cc(CN(C(=O)C3CC3)C3CCCC3)c3nnnn3c12`: inactive: 99%.

Consider `CCOC(=O)CNc1nc(C(C)(C)C)nc2c1nnn2Cc1ccccc1`, for which the survival is inactive: 114%.

In the case of `CC(C)Oc1ccc(C(=O)Nc2c(C(=O)Nc3cccc(F)c3)oc3ccccc23)cc1`, the survival was inactive: 79%.

Regarding `COc1ccc(N2C(S)=C(C#N)C(=O)NC2c2ccccc2)cc1` (stereo not drawn), the survival was inactive: 124%.

Take `COc1ccc(C)cc1Nc1cc(C)nc(C)n1`: the survival was inactive: 83%. The same measure for `O=C(CN1C(=O)c2cccnc2Oc2ccc(Cl)cc21)Nc1cccc(C(F)(F)F)c1`: inactive: 64%; for `COc1cc(NC(=O)CSc2ccc(-c3ccccn3)nn2)cc(OC)c1`: inactive: 90%. The same measure for `COc1nc(-c2ccccc2)nc(C)c1CC(=O)O`: inactive: 101%; for `O=C(Cc1ccc(-c2ccccc2)cc1)NCCS(=O)(=O)N1CCN(c2ccccc2)CC1`: inactive: 127%; for `O=C(CSc1nc(-c2ccc(F)cc2)[nH]c1-c1ccc(F)cc1)Nc1ccc2c(c1)OCO2`: inactive: 120%. The same measure for `COc1ccc(-c2cc(C(F)(F)F)nc(SCC(=O)NCC(C)C)n2)cc1OC`: inactive: 139%. For `Cc1ccc(CNC(=O)c2ccc(CS(=O)Cc3cccc(Cl)c3)o2)cc1` (stereo not drawn), the survival is inactive: 80%. Next, `Cc1ccn2c(=O)cc(COc3cccc(NC(=O)Nc4cccc(Cl)c4C)c3)nc2c1`: inactive: 76%; `COc1ccccc1NC(=O)C1=C(C)Nc2nc3ccccc3n2C1c1cccc(OC)c1OC` (stereo not drawn): inactive: 68%. The same measure for `CCN1CCN(C(=O)C2CCN(Cc3cc(Cl)ccc3O)CC2)CC1`: inactive: 107%; for `O=S(=O)(c1cccc2ccccc12)N1CCN(c2ccc(Cl)c(Cl)c2)CC1`: inactive: 145%. Next, `COc1ccc(NC(C)=O)cc1NC(=O)CN1CCN(c2ccc(F)cc2)CC1`: inactive: 72%; `CCOc1cc(C(=O)NCC(c2ccc(N(C)C)cc2)N2CCOCC2)cc(OCC)c1OCC` (stereo not drawn): inactive: 78%; `Cc1cc(Nc2cccc(C(F)(F)F)c2)nc2ccc(NC(=O)c3cccc(Cl)c3)cc12`: inactive: 90%.

Turning to `O=C(NCCCN1CCOCC1)c1ccc2c(c1)N(Cc1cccc(Cl)c1)C(=O)c1ccccc1S2`, the survival is inactive: 69%. The same measure for `O=C(Cn1cc(S(=O)(=O)c2ccccc2)c(=O)c2cc(Cl)ccc21)Nc1ccc2c(c1)OCO2`: inactive: 79%; for `CCOc1ccc(CNCc2c(C(=O)O)c(C)n(Cc3c(F)cccc3Cl)c2C)cc1OC`: inactive: 82%; for `CCCCN(CCCNC(=O)c1cc(Nc2ccc(OC)c(OC)c2)nc2ccccc12)c1ccccc1`: inactive: 83%. As for `Cc1ccc(-c2cn3c(n2)sc2cc(C(=O)NCCCc4ccccc4)ccc23)c(C)c1`, the survival is inactive: 72%. The same measure for `CC(C)c1ccc(S(=O)(=O)N2CCC(N3CCN(Cc4ccccc4)C(=O)C3=O)CC2)cc1`: inactive: 65%.

Regarding `C#CC1(OC(C)=O)C(C)CN(C)CC1C` (stereo not drawn), the survival was inactive: 104%.

For the molecule `Cc1ccccc1Nc1c(-c2cccnc2)nc2ccc(Cl)cn12`, the survival was inactive: 81%. As for `COc1ccc(C2=C(Nc3ccc(C)cc3C)c3ccccc3C2=O)cc1`, the survival was inactive: 76%. Next, `CCc1nn2c(=O)c(S(=O)(=O)Nc3ccc(Cl)cc3)c(C)nc2s1`: inactive: 107%; `Cc1ccc2oc(=O)n(CCCOc3ccccc3Cl)c2c1`: active: -10%. The same measure for `Cc1cc(C)c(S(=O)(=O)NCC(c2ccc(N(C)C)cc2)N2CCOCC2)c(C)c1` (stereo not drawn): inactive: 73%; for `COc1ccccc1-c1noc(-c2ccc(NCC3CCCO3)c([N+](=O)[O-])c2)n1` (stereo not drawn): inactive: 103%. The same measure for `O=C(NCc1cccnc1)c1cn(Cc2ccccc2)nn1`: inactive: 98%.

Regarding `CCc1cccc(NC(=O)CN(C)S(=O)(=O)c2ccc3c(c2)CCCN3C(C)=O)c1`, the survival was inactive: 83%. `CC(CCc1ccccc1)NC(=O)Cn1c(=O)nc(-c2ccccc2)c2ccccc21` (stereo not drawn): the survival was inactive: 125%. Take `CCOC(=O)c1cnc2c(C)c(Cl)ccc2c1Nc1ccc(N2CCOCC2)cc1`: the survival is inactive: 60%. As to `O=C(NCc1ccc(F)cc1)C1(c2cccs2)CCOCC1`, the survival is inactive: 124%.

As to `Cc1ccc(OCC(=O)Nc2nnc(S(=O)(=O)N3CCCCCC3)s2)cc1`, the survival is inactive: 64%. The same measure for `COc1cc(Nc2nc3c(S(=O)(=O)c4ccc(C)c(C)c4)nnn3c3ccsc23)cc(OC)c1`: inactive: 94%; for `Oc1ccc(NCc2ccccc2OCc2ccc(Cl)cc2)cc1`: inactive: 72%; for `CCOC(=O)c1c(NC(=O)C2c3ccccc3Oc3ccccc32)sc(C)c1CC`: inactive: 33%. Consider `CCn1c(=O)cc(OCC(=O)N(C)c2cc(Cl)ccc2C)c2ccccc21`, for which the survival was inactive: 62%. Next, `O=C(NCCO)c1nc2ccccc2s1`: inactive: 104%; `COC(=O)c1ccccc1NC(=O)N1CCC(N2CCN(Cc3ccc(F)cc3)C(=O)C2=O)CC1`: inactive: 70%.

On to `CC(C)(C)C1CCc2nc(NC(=O)Cc3ccccc3)sc2C1` (stereo not drawn), for which the survival was inactive: 62%. As to `COc1ccc(NC(=O)CS(=O)CC(=O)NC2CCCc3ccccc32)cc1` (stereo not drawn), the survival is inactive: 100%. Next, `O=C(c1cccs1)N(Cc1nc2sc3c(c2c(=O)[nH]1)CCCC3)C1CCCC1`: inactive: 104%; `COc1ccccc1N1C(=O)N(CC(=O)C(C)(C)C)c2ccccc2S1(=O)=O`: inactive: 82%.

`CSc1ccc(-c2nc3cccc(C)n3c2Nc2ccc(Cl)cc2)cc1`: the survival was inactive: 101%. Next, `CN(C)CCNC(=O)c1ccc(-c2nn(C)c(=O)c3ccccc23)cc1`: inactive: 125%; `O=C1CN(C(=O)COc2ccc(Cl)cc2Cl)C(c2ccccc2)c2cc(F)ccc2N1` (stereo not drawn): inactive: 60%; `CCOc1ccc(CCNC(=O)c2nn(C)c3c2CSc2ccccc2-3)cc1`: inactive: 77%.
